In the supplement of paper PMC3334620:
Over roughly 33,000 sequences, “E-score (-0.5 to 0.5)” has its median near -0.054; the highest 2% begin near 0.39. The list shows a part of the results.

Molecular target: Ylr278c (UniProt Q05854)
Assay: PBM E-score (8-mer binding enrichment) (E-score (-0.5 to 0.5)); higher = stronger / more preferred TF binding; most listed sequences are background and not binding sites
Details: protein concentration: 200 nM; construct: GST-DNA-binding domain
Outline: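 The E-score, a modified Wilcoxon-Mann-Whitney statistic, was computed by the Universal PBM Analysis Suite for every ungapped eight-base word pooled with its reverse complement. Scans behind it were normalised with masliner after bound GST-tagged yeast transcription factors were detected with fluorescent anti-GST. The proteins, at about 100-200 nM, had been applied to universal all-10-mer Agilent arrays made double-stranded by primer extension.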

Sequence | PBM E-score
CAGCGTGC | 0.00705
ATTTTCAC | 0.0946
TTCGTCAA | -0.142
AAGAACGT | -0.156
CCCCATGC | 0.0873
ATCAGTAC | -0.112
ACGGGCAA | 0.036
CAGACCCG | 0.165
CTACTATC | 0.125
CAATTCAG | -0.22
GTCTAAAC | 0.0271
CGATCGAC | 0.128
ATTCAATA | -0.0965
TTCATCAA | 0.0271
TATTCTAA | -0.0279
TAGCATGA | -0.306
CGAATATC | 0.0129
CACCTGAG | -0.226
AGGATAAG | -0.00372
ACAGGAAT | -0.086
GCGGCTAA | 0.137
GACCAGGA | -0.0831
TGGGTGAA | 0.0672
ACCCATCC | -0.0311
GAGCAATA | -0.0795

Sequence | PBM E-score
AGCACTTC | -0.0913
AAGTGGGG | 0.0493
CATTAGTA | -0.0334
TCGATAGA | -0.275
TCGTTAAA | 0.0488
CACATCTC | -0.0504
TCATCAAA | -0.118
CCTCCAAG | -0.202
ACCGTTAT | -0.103
ACTCATCA | -0.0156
AGGCACCA | -0.161
AATCGATA | -0.00804
AGAGCCCG | 0.0714
ATTAACAA | -0.0142
GAACACCA | -0.127
GAATGACC | 0.192
ACGCCTAC | -0.262
AATAGTTA | -0.0746
CCTTCCGC | 0.299
GAGGATCC | 0.186
GTCTCGTA | -0.0214
ACACATGC | -0.156
ATCACCTA | -0.271
TAAACAGA | -0.206
CTCAAGCA | -0.286

Sequence | PBM E-score
AATCATGC | -0.0275
CATTCTGC | 0.0374
AAGTGGAG | -0.0974
CACGACGA | -0.244
ATCCGTTC | 0.183
AATACAAT | -0.00114
AACGGTGA | -0.0213
CAAAACGA | -0.0347
ATGAGATC | -0.194
CAAATTAA | -0.0304
CGCGGTGC | 0.181
AGGGGAGG | 0.0252
ATCCACAT | -0.095
AAACAGTG | -0.126
CAACTTCG | 0.0798
CTTCCTGA | -0.0288
AGCGTCCA | -0.185
AATATTTG | -0.0419
CGATTGAC | -0.165
ATACGGGA | 0.133
ACCCGACA | 0.213
CCTATATA | 0.00168
CAAGCTAA | -0.23
ACGCCAGA | -0.13
AGACTCCG | 0.418

Sequence | PBM E-score
GATTGCGA | 0.159
CATATCAG | -0.131
CGGTTGAC | 0.145
AGATTCTG | -0.239
CGTAAAGA | -0.197
CAGACCCA | -0.233
CTGCTAGA | -0.0591
GCGTCCTA | -0.192
CCCGGCCG | 0.354
CATACATC | -0.0121
GGGTACCC | 0.0629
CAAAGCCA | -0.229
AATACTGG | -0.112
CCCAGCAC | -0.0751
ACCAGGCC | -0.116
TAAATCGA | -0.162
CAGTGGGG | -0.204
GAGGAAAC | 0.0855
CCCGCTAA | 0.101
AACAGATA | -0.017
ACCTATAA | -0.105
CTGCTGTC | -0.0508
ATCGAGTC | -0.157
GACTTACA | -0.137
CACTAGTA | -0.104

Sequence | PBM E-score
GATGCCTA | -0.246
GCGGTGCC | 0.15
GATGCCAC | -0.128
AGTTTCGC | -0.0287
ACCTTAAC | -0.0432
GGTGTATA | -0.146
AACCGTCC | 0.0297
ATTAAGAG | -0.0169
ACCAGCCC | 0.191
CACCACAC | -0.035
CGTGACAG | -0.0898
ATCCGACA | 0.382
AGCGCGGG | 0.204
CCGAAGCA | 0.104
CAACATTG | -0.0224
CATGTAGA | -0.012
GCTGGATA | -0.184
ATCTGCAC | -0.0743
GACTTTCC | 0.137
AGACGATG | -0.00363
GCCCAGGA | -0.0781
TAACTATA | -0.202
GCGGCAGC | -0.00346
GACTAGCA | -0.0966
AATCGAAT | 0.127

Sequence | PBM E-score
ACGCTGTA | -0.0084
CTTTAGAA | 0.0574
ACGTAGGA | -0.159
CTGCCGCA | -0.0562
CTATAATC | -0.119
AGCGCCGC | 0.211
CACCCGAA | 0.134
AATGCCGA | 0.392
GTCGTCGA | -0.121
AGCAGAGA | -0.224
GGCGAAAA | 0.135
ACGAAATG | -0.201
GCATTTAA | 0.0391
CCATCGCG | 0.231
GAAGTCCA | -0.0243
AGAAGGCA | -0.0837
CCGAGCAC | 0.182
AGTACGCC | -0.044
ACGGTCTC | 0.0504
ATTAGTCG | 0.038
CACATCAG | -0.111
GGGTAGTA | -0.0481
CGGCTTAG | 0.14
ACTCCCTA | -0.269
CCTAACAC | 0.0521

Sequence | PBM E-score
AAACTTCT | 0.0669
GGCAAGCC | -0.0477
AATTTGTG | 0.137
AAGGACAA | -0.0544
CCGGCTAA | 0.313
AACGCACT | -0.0337
CTGGGACA | -0.185
TAGCGCAA | 0.0105
GCGTATTA | -0.0181
GTAGCGCA | -0.0535
AATTACAA | -0.192
AGATTTAT | 0.135
AACATAAA | -0.213
GGGGACGA | -0.0275
ACAACACG | -0.066
TTAGGCAA | -0.229
CCATACGG | 0.125
ACTAGAGG | -0.185
GGGAGCGA | -0.116
GATCTAAA | 0.0142
ATCACTCA | -0.207
CCGAGTGA | 0.233
GATACTCA | 0.146
GACTCGCC | 0.0201
GGGATGCA | -0.0857

Sequence | PBM E-score
ACAATCTA | -0.187
CATCTGGG | -0.234
GCTTAGCC | 0.0388
CGCACACC | -0.0536
ACGGCTTA | 0.0899
AGACACGA | -0.175
ATCTACCG | 0.143
TGACTGAA | -0.26
AACTAGAG | -0.307
AGCTCCTA | -0.0358
CTATGCGC | 0.0449
CAACCTTC | -0.0706
AGTAAGCA | -0.281
GCTTTTCC | 0.244
TCTCGCAA | -0.0672
GAGCATCA | -0.141
TCTGATCA | -0.102
GAGGGCTA | -0.166
GAGTGTTA | -0.0184
ACTTTGAT | -0.0974
AAAGTACA | -0.156
AGCCGTCC | 0.155
ACATCCAC | -0.0863
AAAAATAG | 0.0524
AATGGTAC | -0.223

Sequence | PBM E-score
GGTGCTGA | -0.0264
CCGGGTCG | 0.313
CGGCAAGA | 0.175
ACGGTGCT | -0.0789
GGCACTAA | 0.0202
ACCGGATG | 0.279
AGGATGAT | -0.149
CGACGCGA | -0.00305
GGCATCCC | 0.00309
GGCTCAGA | -0.0959
CATCCAGA | -0.226
CCACACAA | -0.186
CGTGGTGA | -0.0724
ACTAGCAA | -0.104
CGGCGCGA | 0.295
AGCCCACT | -0.156
ACCCGATA | 0.141
CTTGTAGC | -0.0687
ACGCGGAC | 0.342
